This passage reports binding results from paper PMC3738492.

Chains of the proteins cited; added tags and fusions are not shown.
UniProt Q14258: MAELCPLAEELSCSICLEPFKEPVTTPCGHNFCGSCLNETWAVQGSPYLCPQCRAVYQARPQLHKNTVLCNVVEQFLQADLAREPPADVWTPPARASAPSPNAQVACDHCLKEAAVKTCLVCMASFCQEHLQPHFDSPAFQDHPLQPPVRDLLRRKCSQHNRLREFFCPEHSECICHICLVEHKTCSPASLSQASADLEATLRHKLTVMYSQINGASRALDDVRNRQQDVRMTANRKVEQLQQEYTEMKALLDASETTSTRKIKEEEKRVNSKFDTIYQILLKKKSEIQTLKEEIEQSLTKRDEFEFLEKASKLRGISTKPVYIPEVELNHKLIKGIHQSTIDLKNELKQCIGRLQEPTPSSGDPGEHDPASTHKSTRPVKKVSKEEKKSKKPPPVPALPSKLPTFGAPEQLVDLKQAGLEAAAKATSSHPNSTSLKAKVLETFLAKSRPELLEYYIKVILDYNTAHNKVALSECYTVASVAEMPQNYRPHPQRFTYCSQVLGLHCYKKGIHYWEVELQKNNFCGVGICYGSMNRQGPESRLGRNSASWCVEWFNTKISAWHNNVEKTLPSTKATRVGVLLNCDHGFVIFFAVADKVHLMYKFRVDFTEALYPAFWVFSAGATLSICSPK

In assay [1] the target is T1, N-terminal FLAG-tagged RIG-I (full-length) (not stated (the printed entry NP_055129 is a human one)) (UniProt O95786).
T1 sequence: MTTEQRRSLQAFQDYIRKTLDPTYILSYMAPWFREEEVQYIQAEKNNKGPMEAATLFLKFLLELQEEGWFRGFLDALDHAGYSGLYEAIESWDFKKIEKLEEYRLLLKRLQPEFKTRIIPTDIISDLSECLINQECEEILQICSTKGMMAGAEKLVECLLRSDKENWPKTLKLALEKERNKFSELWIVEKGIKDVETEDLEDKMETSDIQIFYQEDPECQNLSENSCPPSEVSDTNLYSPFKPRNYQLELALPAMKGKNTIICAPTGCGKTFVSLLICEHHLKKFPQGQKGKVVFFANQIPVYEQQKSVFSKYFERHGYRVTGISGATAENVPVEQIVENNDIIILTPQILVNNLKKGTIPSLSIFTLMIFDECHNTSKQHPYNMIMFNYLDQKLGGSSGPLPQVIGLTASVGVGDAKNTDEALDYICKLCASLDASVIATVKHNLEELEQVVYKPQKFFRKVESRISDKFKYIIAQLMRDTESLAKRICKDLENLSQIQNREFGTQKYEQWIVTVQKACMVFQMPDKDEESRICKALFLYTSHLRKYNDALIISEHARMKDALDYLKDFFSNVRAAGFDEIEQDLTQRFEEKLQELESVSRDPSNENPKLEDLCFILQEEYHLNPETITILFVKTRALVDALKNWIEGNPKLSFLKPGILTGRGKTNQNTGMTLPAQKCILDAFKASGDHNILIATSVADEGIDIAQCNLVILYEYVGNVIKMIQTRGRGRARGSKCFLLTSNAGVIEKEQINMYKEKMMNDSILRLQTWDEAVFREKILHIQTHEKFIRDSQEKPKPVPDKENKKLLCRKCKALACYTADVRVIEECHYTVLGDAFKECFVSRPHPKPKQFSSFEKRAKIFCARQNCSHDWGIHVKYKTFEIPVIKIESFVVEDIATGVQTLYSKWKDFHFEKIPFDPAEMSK
Briefly: co-IP; as a3 but without ectopic Riplet expression; HEK293FT, IP with anti-FLAG antibody.

The target in assay [2] is T2, FLAG-tagged RIG-I K788R (not stated (the printed entry NP_055129 is a human one)) (UniProt O95786).
T2 sequence: T1 sequence with K788R
In words: co-IP; HEK293FT cells, lysate 24 h after transfection of FLAG-RIG-I (or K788R), HA-TRIM25 and HA-Riplet; IP with anti-FLAG antibody; co-expressed NS3-4A reduced the interaction (Figure 8D).

Assay [3] has as its target T3, FLAG-tagged RIG-I RD (not stated (the printed entry NP_055129 is a human one)) (UniProt O95786).
T3 sequence: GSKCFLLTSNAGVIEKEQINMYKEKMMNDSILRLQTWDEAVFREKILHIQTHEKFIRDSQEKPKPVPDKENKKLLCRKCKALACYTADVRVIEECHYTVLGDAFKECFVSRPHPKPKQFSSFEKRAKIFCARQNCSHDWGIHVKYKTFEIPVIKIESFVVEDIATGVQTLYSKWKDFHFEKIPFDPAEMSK
In words: co-IP; HEK293FT cells, lysate 24 h after transfection; IP of the FLAG-tagged RIG-I fragment with anti-FLAG antibody; Riplet co-expressed in some panels of Figure 6.

For assay [4], the target named is T4, endogenous RIG-I (human (endogenous in HEK293FT and HuH7)) (UniProt O95786).
T4 sequence: T1 sequence
Briefly: co-IP; endogenous proteins; HEK293FT cells stimulated with 0.8 µg HCV dsRNA (lipofectamine 2000), lysates at the indicated times; IP with anti-RIG-I mAb Alme-1.

Assay [5] deals with T4, endogenous RIG-I (human (endogenous in HEK293FT and HuH7)). Briefly: co-IP; endogenous proteins; HuH7 cells infected with SeV at MOI = 1 for 24 hours; IP with anti-RIG-I (Alme-1) antibody.

Residue numbers refer to the chain shown, from its start. These are yes or no findings as the source states them, for the method shown. Binding seen in cells or lysates may run through a third protein. Some binding calls cover weakened binding; strength is not graded here. For some of these results: Where a sequence is shown, tags or fusion partners need not be part of it.

On to “C-terminal HA-tagged TRIM25 (from UniProt Q14258 1-630)”, for which the figures for the binding result in assay [1] and in assay [2] were “binds weakly” and “no binding”, respectively.

B1: HA-tagged IKK-ε (protein, UniProt Q14164 1-716)
chain: MQSTANYLWHTDDLLGQGATASVYKARNKKSGELVAVKVFNTTSYLRPREVQVREFEVLRKLNHQNIVKLFAVEETGGSRQKVLVMEYCSSGSLLSVLESPENAFGLPEDEFLVVLRCVVAGMNHLRENGIVHRDIKPGNIMRLVGEEGQSIYKLTDFGAARELDDDEKFVSVYGTEEYLHPDMYERAVLRKPQQKAFGVTVDLWSIGVTLYHAATGSLPFIPFGGPRRNKEIMYRITTEKPAGAIAGAQRRENGPLEWSYTLPITCQLSLGLQSQLVPILANILEVEQAKCWGFDQFFAETSDILQRVVVHVFSLSQAVLHHIYIHAHNTIAIFQEAVHKQTSVAPRHQEYLFEGHLCVLEPSVSAQHIAHTTASSPLTLFSTAIPKGLAFRDPALDVPKFVPKVDLQADYNTAKGVLGAGYQALRLARALLDGQELMFRGLHWVMEVLQATCRRTLEVARTSLLYLSSSLGTERFSSVAGTPEIQELKAAAELRSRLRTLAEVLSRCSQNITETQESLSSLNRELVKSRDQVHEDRSIQQIQCCLDKMNFIYKQFKKSRMRPGLGYNEEQIHKLDKVNFSHLAKRLLQVFQEECVQKYQASLVTHGKRMRVVHETRNHLRLVGCSVAACNTEAQGVQESLSKLLEELSHQLLQDRAKGAQASPPPIAPYPSPTRKDLLLHMQELCEGMKLLASDLLDNNRIIERLNRVPAPPDV
As to B1, in assay [3], the binding entry is listed as “binds”.

B2: endogenous Riplet (protein, UniProt Q8IUD6 1-432)
chain: MAGLGLGSAVPVWLAEDDLGCIICQGLLDWPATLPCGHSFCRHCLEALWGARDARRWACPTCRQGAAQQPHLRKNTLLQDLADKYRRAAREIQAGSDPAHCPCPGSSSLSSAAARPRRRPELQRVAVEKSITEVAQELTELVEHLVDIVRSLQNQRPLSESGPDNELSILGKAFSSGVDLSMASPKLVTSDTAAGKIRDILHDLEEIQEKLQESVTWKEAPEAQMQGELLEAPSSSSCPLPDQSHPALRRASRFAQWAIHPTFNLKSLSCSLEVSKDSRTVTVSHRPQPYRWSCERFSTSQVLCSQALSSGKHYWEVDTRNCSHWAVGVASWEMSRDQVLGRTMDSCCVEWKGTSQLSAWHMVKETVLGSDRPGVVGIWLNLEEGKLAFYSVDNQEKLLYECTISASSPLYPAFWLYGLHPGNYLIIKQVKV
In the case of B2, in assay [4], the binding entry is on record as “binds”.

B3: Riplet (ectopically expressed) (protein, UniProt Q8IUD6 1-432)
chain: B2 chain
B3: the binding result in assay [3] was “binds”.

B4: endogenous TBK1 (protein, UniProt Q9UHD2 1-729)
chain: MQSTSNHLWLLSDILGQGATANVFRGRHKKTGDLFAIKVFNNISFLRPVDVQMREFEVLKKLNHKNIVKLFAIEEETTTRHKVLIMEFCPCGSLYTVLEEPSNAYGLPESEFLIVLRDVVGGMNHLRENGIVHRDIKPGNIMRVIGEDGQSVYKLTDFGAARELEDDEQFVSLYGTEEYLHPDMYERAVLRKDHQKKYGATVDLWSIGVTFYHAATGSLPFRPFEGPRRNKEVMYKIITGKPSGAISGVQKAENGPIDWSGDMPVSCSLSRGLQVLLTPVLANILEADQEKCWGFDQFFAETSDILHRMVIHVFSLQQMTAHKIYIHSYNTATIFHELVYKQTKIISSNQELIYEGRRLVLEPGRLAQHFPKTTEENPIFVVSREPLNTIGLIYEKISLPKVHPRYDLDGDASMAKAITGVVCYACRIASTLLLYQELMRKGIRWLIELIKDDYNETVHKKTEVVITLDFCIRNIEKTVKVYEKLMKINLEAAELGEISDIHTKLLRLSSSQGTIETSLQDIDSRLSPGGSLADAWAHQEGTHPKDRNVEKLQVLLNCMTEIYYQFKKDKAERRLAYNEEQIHKFDKQKLYYHATKAMTHFTDECVKKYEAFLNKSEEWIRKMLHLRKQLLSLTNQCFDIEEEVSKYQEYTNELQETLPQKMFTASSGIKHTMTPIYPSSNTLVEMTLGMKKLKEEMEGVVKELAENNHILERFGSLTMDGGLRNVDCL
Take B4: the binding result in assay [5] was “binds”.

B5: Myc-tagged TBK1 (protein, UniProt Q9UHD2 1-729)
chain: B4 chain
For B5, the binding result in assay [3] is recorded as “binds”.
